Lines with a small IC50 respond at low doses; a limit (>, <) means that the fit lies beyond the doses tested. AUC sums up the same curve from the lowest dose to the 256-fold higher top dose: 1 means no effect, lower means more sensitive. For some of these results: An inferred top dose is not printed in the source and was worked back from the curve model.
Experiments:
Test in all cases: Viability of human cancer cell lines after 72 h of drug (GDSC screen)
[1] = compound: N[C@@H](CSC(c1ccccc1)(c1ccccc1)c1ccccc1)C(=O)O [S-Trityl-L-cysteine]; settings: top dose 5.12 µM; top dose inferred
Experimental: (§1)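 Human cancer cell lines in 384-well plates, medium with 10% serum, drug for 72 h over a 256-fold dose range (nine 2-fold or five 4-fold steps up to the top dose). Adherent lines were fixed and stained with the nucleic acid dye Syto60, suspension lines read with resazurin; signal relative to control wells, capped at 0 and 100%. One two-parameter sigmoid per drug and line, fitted in a mixed model over all curves with the slope shared within a line.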

[2] = compound: O=c1cc(N2CCOCC2)oc2c(-c3cccc4c3sc3ccccc34)cccc12 [NU-7441]; settings: top dose 2 µM; top dose inferred
Experimental: as §1

[3] = compound: COc1cc2ncnc(Nc3ccc(F)c(Cl)c3)c2cc1OCCCN1CCOCC1 [Gefitinib]; settings: top dose 0.5 µM
Experimental: as §1

[4] = compound: CNCc1ccc(-c2[nH]c3cc(F)cc4c3c2CCNC4=O)cc1 [AG-014699]; settings: top dose 5 µM; top dose inferred
Experimental: as §1

[5] = compound: COc1cc2nccc(Oc3ccc(NC(=O)C4(C(=O)Nc5ccc(F)cc5)CC4)cc3)c2cc1OC [XL-184]; settings: top dose 5.12 µM; top dose inferred
Experimental: as §1

[6] = compound: N=C(N)NC(=N)NCCc1ccccc1 [Phenformin]; settings: top dose 4000 µM; top dose inferred
Experimental: as §1

[7] = compound: C=CC(=O)Nc1cc(NC(=O)c2ccc(C)c(NC(=O)c3ccno3)c2)cc(C(F)(F)F)c1 [QL-XI-92]; settings: top dose 10.24 µM; top dose inferred
Experimental: as §1

[8] = compound: CCC1=C[C@@H]2CN(C1)Cc1c([nH]c3ccccc13)[C@@](C(=O)OC)(c1cc3c(cc1OC)N(C)[C@H]1[C@@](O)(C(=O)OC)[C@H](OC(C)=O)[C@]4(CC)C=CCN5CC[C@]31[C@@H]54)C2 [Vinorelbine]; settings: top dose 0.064 µM; top dose inferred
Experimental: as §1

[9] = compound: O=c1cc(CN2CCOCC2)occ1OCCCCCSc1ccnc2cc(C(F)(F)F)ccc12 [EHT 1864]; settings: top dose 10 µM; top dose inferred
Experimental: as §1

[10] = compound: COc1cc2ncnc(Nc3cc(Br)c(O)c(Br)c3)c2cc1OC [WHI-P97]; settings: top dose 10.24 µM; top dose inferred
Experimental: as §1

Row | Cell Line | AUC [1] | IC50 [1] | AUC [2] | IC50 [2] | AUC [3] | IC50 [3] | AUC [4] | IC50 [4] | AUC [5] | IC50 [5] | AUC [6] | IC50 [6] | AUC [7] | IC50 [7] | AUC [8] | IC50 [8] | AUC [9] | IC50 [9] | AUC [10] | IC50 [10]
1 | IA-LM (large cell lung carcinoma, adherent) | 0.725 | 1.52 µM | 0.903 | > 2 µM | 0.974 | > 0.5 µM | 0.982 | > 5 µM | 0.973 | > 5.12 µM | 0.815 | 2540 µM | 0.956 | > 10.2 µM | 0.512 | 0.00433 µM | 0.971 | > 10 µM | 0.979 | > 10.2 µM
2 | IST-MEL1 (melanoma, adherent) | 0.897 | > 5.12 µM | 0.915 | > 2 µM | 0.982 | > 0.5 µM | 0.967 | > 5 µM | 0.946 | > 5.12 µM | 0.49 | 234 µM | 0.945 | > 10.2 µM | 0.883 | > 0.064 µM | 0.972 | > 10 µM | 0.977 | > 10.2 µM
3 | IST-SL1 (small cell lung carcinoma, semi-adherent) | 0.839 | 3.65 µM | 0.945 | > 2 µM | 0.976 | > 0.5 µM | 0.977 | > 5 µM | 0.894 | > 5.12 µM | 0.987 | > 4000 µM | 0.829 | 6.65 µM | 0.767 | 0.0245 µM | 0.916 | > 10 µM | 0.971 | > 10.2 µM
4 | JSC-1 (B-cell lymphoma, suspension) | 0.589 | 0.561 µM | 0.965 | > 2 µM | 0.985 | > 0.5 µM | 0.969 | > 5 µM | 0.931 | > 5.12 µM | 0.637 | 596 µM | 0.74 | 3.09 µM | 0.525 | 0.00468 µM | 0.911 | > 10 µM | 0.95 | > 10.2 µM
5 | JVM-2 (lymphoid neoplasm, suspension) | 0.962 | > 5.12 µM | 0.912 | > 2 µM | 0.842 | 0.475 µM | 0.96 | > 5 µM | 0.948 | > 5.12 µM | 0.788 | 2210 µM | 0.897 | > 10.2 µM | 0.977 | > 0.064 µM | 0.982 | > 10 µM | 0.932 | > 10.2 µM
6 | JiyoyeP-2003 (Burkitt lymphoma, suspension) | 0.697 | 1.05 µM | 0.984 | > 2 µM | 0.964 | > 0.5 µM | 0.989 | > 5 µM | 0.975 | > 5.12 µM | 0.573 | 386 µM | 0.991 | > 10.2 µM | 0.688 | 0.0125 µM | 0.926 | > 10 µM | 0.978 | > 10.2 µM
7 | K5 (thyroid, adherent) | 0.67 | 0.929 µM | 0.945 | > 2 µM | 0.959 | > 0.5 µM | 0.953 | > 5 µM | 0.957 | > 5.12 µM | 0.95 | > 4000 µM | 0.986 | > 10.2 µM | 0.843 | 0.0427 µM | 0.922 | > 10 µM | 0.979 | > 10.2 µM
8 | KARPAS-45 (lymphoblastic leukaemia, suspension) | 0.705 | 1.07 µM | 0.884 | 1.54 µM | 0.987 | > 0.5 µM | 0.979 | > 5 µM | 0.782 | 1.77 µM | 0.264 | 61.1 µM | 0.931 | > 10.2 µM | 0.499 | 0.00398 µM | 0.942 | > 10 µM | 0.979 | > 10.2 µM
9 | KARPAS-620 (haematopoietic neoplasm, suspension) | 0.51 | 0.339 µM | 0.986 | > 2 µM | 0.991 | > 0.5 µM | 0.991 | > 5 µM | 0.905 | > 5.12 µM | 0.073 | < 15.6 µM | 0.776 | 3.51 µM | 0.464 | 0.00325 µM | 0.966 | > 10 µM | 0.944 | > 10.2 µM
10 | KELLY (neuroblastoma, adherent) | 0.755 | 1.6 µM | 0.926 | > 2 µM | 0.989 | > 0.5 µM | 0.806 | 2.27 µM | 0.951 | > 5.12 µM | 0.984 | > 4000 µM | 0.989 | > 10.2 µM | 0.915 | > 0.064 µM | 0.972 | > 10 µM | 0.914 | > 10.2 µM
11 | KINGS-1 (glioma, adherent) | 0.751 | 2.28 µM | 0.937 | > 2 µM | 0.975 | > 0.5 µM | 0.909 | > 5 µM | 0.805 | 3.85 µM | 0.49 | 232 µM | 0.97 | > 10.2 µM | 0.785 | 0.0393 µM | 0.941 | > 10 µM | 0.98 | > 10.2 µM
12 | KLE (endometrium, adherent) | 0.824 | > 5.12 µM | 0.958 | > 2 µM | 0.948 | > 0.5 µM | 0.969 | > 5 µM | 0.932 | > 5.12 µM | 0.703 | 1300 µM | 0.947 | > 10.2 µM | 0.848 | > 0.064 µM | 0.905 | > 10 µM | 0.949 | > 10.2 µM
13 | KM-H2 (Hodgkin lymphoma, suspension) | 0.763 | 1.58 µM | 0.986 | > 2 µM | 0.98 | > 0.5 µM | 0.983 | > 5 µM | 0.972 | > 5.12 µM | 0.993 | > 4000 µM | 0.957 | > 10.2 µM | 0.639 | – | 0.873 | 7.15 µM | 0.991 | > 10.2 µM
14 | KNS-42 (glioma, adherent) | 0.82 | 3.69 µM | 0.984 | > 2 µM | 0.975 | > 0.5 µM | 0.979 | > 5 µM | 0.934 | > 5.12 µM | 0.761 | 1680 µM | 0.971 | > 10.2 µM | 0.588 | 0.00733 µM | 0.968 | > 10 µM | 0.966 | > 10.2 µM
15 | KS-1 (glioma, adherent) | 0.636 | – | 0.96 | > 2 µM | 0.952 | > 0.5 µM | 0.921 | > 5 µM | 0.761 | 2.26 µM | 0.81 | 2780 µM | 0.868 | > 10.2 µM | 0.375 | 0.00166 µM | 0.848 | > 10 µM | 0.968 | > 10.2 µM
16 | KU812 (chronic myeloid leukaemia, suspension) | 0.671 | 0.913 µM | 0.975 | > 2 µM | 0.963 | > 0.5 µM | 0.988 | > 5 µM | 0.95 | > 5.12 µM | 0.309 | 77.1 µM | 0.821 | 5.28 µM | 0.638 | – | 0.867 | 7.72 µM | 0.988 | > 10.2 µM
17 | KY821 (leukaemia, suspension) | 0.76 | 1.6 µM | 0.91 | > 2 µM | 0.991 | > 0.5 µM | 0.988 | > 5 µM | 0.969 | > 5.12 µM | 0.818 | 1890 µM | 0.971 | > 10.2 µM | 0.967 | > 0.064 µM | 0.961 | > 10 µM | 0.991 | > 10.2 µM
18 | L-540 (Hodgkin lymphoma, suspension) | 0.933 | > 5.12 µM | 0.985 | > 2 µM | 0.99 | > 0.5 µM | 0.99 | > 5 µM | 0.972 | > 5.12 µM | 0.988 | > 4000 µM | 0.932 | > 10.2 µM | 0.807 | 0.0286 µM | 0.981 | > 10 µM | 0.94 | > 10.2 µM
19 | LAN-6 (neuroblastoma, adherent) | 0.86 | > 5.12 µM | 0.951 | > 2 µM | 0.963 | > 0.5 µM | 0.951 | > 5 µM | 0.968 | > 5.12 µM | 0.875 | > 4000 µM | 0.96 | > 10.2 µM | 0.966 | > 0.064 µM | 0.959 | > 10 µM | 0.982 | > 10.2 µM
20 | LB373-MEL-D (melanoma, adherent) | 0.804 | 2.5 µM | 0.99 | > 2 µM | 0.99 | > 0.5 µM | 0.99 | > 5 µM | 0.968 | > 5.12 µM | 0.864 | 3370 µM | 0.99 | > 10.2 µM | 0.824 | 0.037 µM | 0.99 | > 10 µM | 0.963 | > 10.2 µM
21 | LB2518-MEL (melanoma, adherent) | 0.809 | 2.85 µM | 0.97 | > 2 µM | 0.981 | > 0.5 µM | 0.987 | > 5 µM | 0.975 | > 5.12 µM | 0.414 | 143 µM | 0.987 | > 10.2 µM | 0.847 | 0.051 µM | 0.987 | > 10 µM | 0.981 | > 10.2 µM
22 | LC4-1 (lymphoblastic leukaemia, suspension) | 0.781 | 2.37 µM | 0.985 | > 2 µM | 0.983 | > 0.5 µM | 0.985 | > 5 µM | 0.896 | > 5.12 µM | 0.417 | 144 µM | 0.81 | 6.12 µM | 0.611 | 0.00836 µM | 0.962 | > 10 µM | 0.962 | > 10.2 µM
23 | LOUCY (T-cell lymphoblastic leukaemia, suspension) | 0.592 | 0.545 µM | 0.991 | > 2 µM | 0.989 | > 0.5 µM | 0.971 | > 5 µM | 0.878 | 3.58 µM | 0.574 | 382 µM | 0.876 | 7.05 µM | 0.622 | 0.00811 µM | 0.959 | > 10 µM | 0.973 | > 10.2 µM
